Source: paper PMC6987189, “Native aggregation is a common feature among triosephosphate isomerases of different species” (Scientific Reports, 2020)

B1: Homo sapiens triosephosphate isomerase (enzyme)
chain: not shown
notes: triosephosphate isomerase (TIM), Homo sapiens; gene cloned into pET-3aHIS; also called HsTIM; Hs; source: E. coli Bl21 (DE3)-p-Lys S, purified (ammonium sulphate, Butyl-650M, Source 15Q)
B2: Homo sapiens triosephosphate isomerase with histidine tag (enzyme)
chain: not shown
notes: triosephosphate isomerase (TIM), Homo sapiens; gene cloned into pET-3aHIS; Tag of 6 histidines from the vector pET-3aHIS; also called HsTIM-6H; HsTIMHIS; source: E. coli Bl21 (DE3)-p-Lys S, purified (ammonium sulphate, Butyl-650M, Source 15Q)

Target: the molecule itself
Experiment: native gel or EMSA; clear native electrophoresis (CN-PAGE), normal polarity (cathode-anode), 4-10% gradient gels, HEPES/imidazole pH 7.0 (40.0/15.3, 88.9/34.0 or 133.2/50 mM in the gel), 150 V, 4 °C, 5 h, ten micrograms of purified enzyme; masses from ferritin and albumin markers, means of the gel conditions; also after 10 mM DTT; dimers to higher aggregates

Protein | stoichiometry N
B1 | 16 dimers in the aggregate and 11 dimers in the aggregate and 8.5 dimers in the aggregate and 7.5 dimers in the aggregate
B2 | 17 dimers in the aggregate and 11.5 dimers in the aggregate and 9 dimers in the aggregate and 7.5 dimers in the aggregate

Where “and” joins values, the source holds several entries; their conditions need not be identical. Identical values can stand only once.
